The values that follow come from patent US20250101135A1 (Hoffmann-La Roche, published 2025).

Assay [1] addresses T1, human CD19 (recombinant, form not given) (human, UniProt P15391 20-291, limits assumed).
T1 construct: also called huCD19
T1 sequence (looked up): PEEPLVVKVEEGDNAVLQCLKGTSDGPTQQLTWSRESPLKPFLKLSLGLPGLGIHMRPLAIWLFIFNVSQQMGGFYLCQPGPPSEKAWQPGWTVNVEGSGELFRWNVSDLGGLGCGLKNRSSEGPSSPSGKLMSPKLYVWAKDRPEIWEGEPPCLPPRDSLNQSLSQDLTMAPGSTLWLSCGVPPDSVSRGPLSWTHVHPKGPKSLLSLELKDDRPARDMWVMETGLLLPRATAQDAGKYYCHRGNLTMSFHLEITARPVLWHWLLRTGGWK
Briefly: SPR Biacore T200, biotinylated human 4-1BB Fc(kih) on SA chip, construct 200 nM then human CD19 500 nM.

For assay [2], the target named is T2, human 4-1BB (CD137) on cells (human, UniProt Q07011 24-255). The assay is described as follows: cell-based or functional assay.
Assay [3] deals with T2, human 4-1BB (CD137) on cells. The assay is described as follows: flow cytometry on activated human PBMC, 4-1BB+ CD4+ T cells.
The target is the same in assay [4]. Briefly: flow cytometry on activated human PBMC, 4-1BB+ CD8+ T cells.
In the next assay the target is T3, human NA3B3A2-avi-His (human).
T3 construct: hybrid antigen with avi and His tags; also called hu NA3B3A2
T3 chain: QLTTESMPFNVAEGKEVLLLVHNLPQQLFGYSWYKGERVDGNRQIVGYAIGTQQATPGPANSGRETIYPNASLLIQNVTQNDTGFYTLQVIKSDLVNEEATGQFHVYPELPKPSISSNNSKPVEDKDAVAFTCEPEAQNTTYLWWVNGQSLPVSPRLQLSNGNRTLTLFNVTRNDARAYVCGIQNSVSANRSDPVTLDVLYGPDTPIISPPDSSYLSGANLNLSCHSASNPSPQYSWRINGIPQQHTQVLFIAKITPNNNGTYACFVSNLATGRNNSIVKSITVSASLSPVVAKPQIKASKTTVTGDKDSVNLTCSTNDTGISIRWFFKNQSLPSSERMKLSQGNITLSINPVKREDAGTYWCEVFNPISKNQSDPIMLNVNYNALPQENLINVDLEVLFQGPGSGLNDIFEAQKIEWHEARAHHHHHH
The assay is described as follows: SPR (Biacore T200), simultaneous binding: construct held on immobilized human 4-1BB Fc(kih), human NA3B3A2-avi-His injected as analyte 2 at 500 nM.

Assay [5] has as its target T2, human 4-1BB (CD137) on cells. Briefly: flow cytometry on activated human PBMC, 4-1BB+ CD4+ T cells. This is another data set of the same source.
Assay [6] has the same target. The assay is described as follows: flow cytometry on activated human PBMC, 4-1BB+ CD8+ T cells. The source holds these as a separate data set.
Assay [7] deals with T4, human fibroblast activation protein (FAP) on cells (human, UniProt Q12884 1-760).
T4 construct: also called human FAP; huFAP
Briefly: flow cytometry, FAP-expressing MV-3 cells, PE anti-human IgG Fc secondary.

For assay [8], the target named is T4, human fibroblast activation protein …. The assay is described as follows: flow cytometry, FAP-expressing WM-266-4 cells, PE anti-human IgG Fc secondary.

B1: monovalent CD19(8B8-2B11) targeted split trimeric 4-1BB ligand (71-248) Fc (kih) fusion containing CH-CL cross with charged residues (construct 4.4) (Fc fusion)
chain 1: REGPELSPDDPAGLLDLRQGMFAQLVAQNVLLIDGPLSWYSDPGLAGVSLTGGLSYKEDTKELVVAKAGVYYVFFQLELRRVVAGEGSGSVSLALHLQPLRSAAGAAALALTVDLPPASSEARNSAFGFQGRLLHLSAGQRLGVHLHTEARARHAWQLTQGATVLGLFRVTPEIPAGLGGGGSGGGGSREGPELSPDDPAGLLDLRQGMFAQLVAQNVLLIDGPLSWYSDPGLAGVSLTGGLSYKEDTKELVVAKAGVYYVFFQLELRRVVAGEGSGSVSLALHLQPLRSAAGAAALALTVDLPPASSEARNSAFGFQGRLLHLSAGQRLGVHLHTEARARHAWQLTQGATVLGLFRVTPEIPAGLGGGGSGGGGSRTVAAPSVFIFPPSDRKLKSGTASVVCLLNNFYPREAKVQWKVDNALQSGNSQESVTEQDSKDSTYSLSSTLTLSKADYEKHKVYACEVTHQGLSSPVTKSFNRGE[no letters for human IgG1 Fc with changes]
chain 2: REGPELSPDDPAGLLDLRQGMFAQLVAQNVLLIDGPLSWYSDPGLAGVSLTGGLSYKEDTKELVVAKAGVYYVFFQLELRRVVAGEGSGSVSLALHLQPLRSAAGAAALALTVDLPPASSEARNSAFGFQGRLLHLSAGQRLGVHLHTEARARHAWQLTQGATVLGLFRVTPEIPAGLGGGGSGGGGSASTKGPSVFPLAPSSKSTSGGTAALGCLVEDYFPEPVTVSWNSGALTSGVHTFPAVLQSSGLYSLSSVVTVPSSSLGTQTYICNVNHKPSNTKVDEKVEPKSC
heavy: QVQLVQSGAEVKKPGASVKVSCKASGYTFTDYIMHWVRQAPGQGLEWMGYINPYNDGSKYTEKFQGRVTMTSDTSISTAYMELSRLRSDDTAVYYCARGTYYYGPQLFDYWGQGTTVTVSSASTKGPSVFPLAPSSKSTSGGTAALGCLVKDYFPEPVTVSWNSGALTSGVHTFPAVLQSSGLYSLSSVVTVPSSSLGTQTYICNVNHKPSNTKVDKKVEPKSCDKTHTCPPCPAPEAAGGPSVFLFPPKPKDTLMISRTPEVTCVVVDVSHEDPEVKFNWYVDGVEVHNAKTKPREEQYNSTYRVVSVLTVLHQDWLNGKEYKCKVSNKALGAPIEKTISKAKGQPREPQVCTLPPSRDELTKNQVSLSCAVKGFYPSDIAVEWESNGQPENNYKTTPPVLDSDGSFFLVSKLTVDKSRWQQGNVFSCSVMHEALHNHYTQKSLSLSPGK
light: DIVMTQTPLSLSVTPGQPASISCKSSQSLETSTGTTYLNWYLQKPGQSPQLLIYRVSKRFSGVPDRFSGSGSGTDFTLKISRVEAEDVGVYYCLQLLEDPYTFGQGTKLEIKRTVAAPSVFIFPPSDEQLKSGTASVVCLLNNFYPREAKVQWKVDNALQSGNSQESVTEQDSKDSTYSLSSTLTLSKADYEKHKVYACEVTHQGLSSPVTKSFNRGEC
Regarding B1, the binding result in [1] was “binds”.

B2: bivalent CEA(T84.66) targeted split trimeric 4-1BB ligand (71-254) Fc (kih) PGLALA fusion (construct 5.8) (Fc fusion)
heavy 1: EVQLQQSGAELVEPGASVKLSCTASGFNIKDTYMHWVKQRPEQGLEWIGRIDPANGNSKYVPKFQGKATITADTSSNTAYLQLTSLTSEDTAVYYCAPFGYYVSDYAMAYWGQGTSVTVSSASTKGPSVFPLAPSSKSTSGGTAALGCLVKDYFPEPVTVSWNSGALTSGVHTFPAVLQSSGLYSLSSVVTVPSSSLGTQTYICNVNHKPSNTKVDKKVEPKSCDKTHTCPPCPAPEAAGGPSVFLFPPKPKDTLMISRTPEVTCVVVDVSHEDPEVKFNWYVDGVEVHNAKTKPREEQYNSTYRVVSVLTVLHQDWLNGKEYKCKVSNKALGAPIEKTISKAKGQPREPQVCTLPPSRDELTKNQVSLSCAVKGFYPSDIAVEWESNGQPENNYKTTPPVLDSDGSFFLVSKLTVDKSRWQQGNVFSCSVMHEALHNHYTQKSLSLSPGGGGGSGGGGSREGPELSPDDPAGLLDLRQGMFAQLVAQNVLLIDGPLSWYSDPGLAGVSLTGGLSYKEDTKELVVAKAGVYYVFFQLELRRVVAGEGSGSVSLALHLQPLRSAAGAAALALTVDLPPASSEARNSAFGFQGRLLHLSAGQRLGVHLHTEARARHAWQLTQGATVLGLFRVTPEIPAGLPSPRSEGGGGSGGGGSREGPELSPDDPAGLLDLRQGMFAQLVAQNVLLIDGPLSWYSDPGLAGVSLTGGLSYKEDTKELVVAKAGVYYVFFQLELRRVVAGEGSGSVSLALHLQPLRSAAGAAALALTVDLPPASSEARNSAFGFQGRLLHLSAGQRLGVHLHTEARARHAWQLTQGATVLGLFRVTPEIPAGLPSPRSE
heavy 2: EVQLQQSGAELVEPGASVKLSCTASGFNIKDTYMHWVKQRPEQGLEWIGRIDPANGNSKYVPKFQGKATITADTSSNTAYLQLTSLTSEDTAVYYCAPFGYYVSDYAMAYWGQGTSVTVSSASTKGPSVFPLAPSSKSTSGGTAALGCLVKDYFPEPVTVSWNSGALTSGVHTFPAVLQSSGLYSLSSVVTVPSSSLGTQTYICNVNHKPSNTKVDKKV[no letters for human IgG1 Fc with changes]GGGGSGGGGSREGPELSPDDPAGLLDLRQGMFAQLVAQNVLLIDGPLSWYSDPGLAGVSLTGGLSYKEDTKELVVAKAGVYYVFFQLELRRVVAGEGSGSVSLALHLQPLRSAAGAAALALTVDLPPASSEARNSAFGFQGRLLHLSAGQRLGVHLHTEARARHAWQLTQGATVLGLFRVTPEIPAGLPSPRSE
light: DIVLTQSPASLAVSLGQRATMSCRAGESVDIFGVGFLHWYQQKPGQPPKLLIYRASNLESGIPVRFSGTGSRTDFTLIIDPVEADDVATYYCQQTNEDPYTFGGGTKLEIKRTVAAPSVFIFPPSDEQLKSGTASVVCLLNNFYPREAKVQWKVDNALQSGNSQESVTEQDSKDSTYSLSSTLTLSKADYEKHKVYACEVTHQGLSSPVTKSFNRGEC
B2: in [2], the “EC50 [nM] of NF-kB-luciferase activation, human 4-1BB HeLa reporter cells with MKN-45 cells” value is 0.45 nM. For the same molecule, the “EC50 [nM] of NF-kB-luciferase activation, human 4-1BB HeLa reporter cells, no tumor cells” value in assay [2] was 1.52 nM. Further, the values for the 50% effective concentration (EC50) in assay [3] and in assay [4] were 380 pM and 170 pM, respectively. Also, the binding result with human NA3B3A2-avi-His is listed as “binds”.

B3: bivalent FAP(4B9)-targeted human 4-1BB ligand (71-248) containing Fc (kih) fusion molecule Construct 2.6 (Fc fusion)
heavy 1: EVQLLESGGGLVQPGGSLRLSCAASGFTFSSYAMSWVRQAPGKGLEWVSAIIGSGASTYYADSVKGRFTISRDNSKNTLYLQMNSLRAEDTAVYYCAKGWFGGFNYWGQGTLVTVSSASTKGPSVFPLAPSSKSTSGGTAALGCLVKDYFPEPVTVSWNSGALTSGVHTFPAVLQSSGLYSLSSVVTVPSSSLGTQTYICNVNHKPSNTKVDKKVEPKSCDKTHTCPPCPAPEAAGGPSVFLFPPKPKDTLMISRTPEVTCVVVDVSHEDPEVKFNWYVDGVEVHNAKTKPREEQYNSTYRVVSVLTVLHQDWLNGKEYKCKVSNKALGAPIEKTISKAKGQPREPQVCTLPPSRDELTKNQVSLSCAVKGFYPSDIAVEWESNGQPENNYKTTPPVLDSDGSFFLVSKLTVDKSRWQQGNVFSCSVMHEALHNHYTQKSLSLSPGGGGGSGGGGSREGPELSPDDPAGLLDLRQGMFAQLVAQNVLLIDGPLSWYSDPGLAGVSLTGGLSYKEDTKELVVAKAGVYYVFFQLELRRVVAGEGSGSVSLALHLQPLRSAAGAAALALTVDLPPASSEARNSAFGFQGRLLHLSAGQRLGVHLHTEARARHAWQLTQGATVLGLFRVTPEIPAGLGGGGSGGGGSREGPELSPDDPAGLLDLRQGMFAQLVAQNVLLIDGPLSWYSDPGLAGVSLTGGLSYKEDTKELVVAKAGVYYVFFQLELRRVVAGEGSGSVSLALHLQPLRSAAGAAALALTVDLPPASSEARNSAFGFQGRLLHLSAGQRLGVHLHTEARARHAWQLTQGATVLGLFRVTPEIPAGL
heavy 2: EVQLLESGGGLVQPGGSLRLSCAASGFTFSSYAMSWVRQAPGKGLEWVSAIIGSGASTYYADSVKGRFTISRDNSKNTLYLQMNSLRAEDTAVYYCAKGWFGGFNYWGQGTLVTVSSASTKGPSVFPLAPSSKSTSGGTAALGCLVKDYFPEPVTVSWNSGALTSGVHTFPAVLQSSGLYSLSSVVTVPSSSLGTQTYICNVNHKPSNTKVDKKV[no letters for human IgG1 Fc with changes]GGGGSGGGGSREGPELSPDDPAGLLDLRQGMFAQLVAQNVLLIDGPLSWYSDPGLAGVSLTGGLSYKEDTKELVVAKAGVYYVFFQLELRRVVAGEGSGSVSLALHLQPLRSAAGAAALALTVDLPPASSEARNSAFGFQGRLLHLSAGQRLGVHLHTEARARHAWQLTQGATVLGLFRVTPEIPAGL
light: EIVLTQSPGTLSLSPGERATLSCRASQSVTSSYLAWYQQKPGQAPRLLINVGSRRATGIPDRFSGSGSGTDFTLTISRLEPEDFAVYYCQQGIMLPPTFGQGTKVEIKRTVAAPSVFIFPPSDEQLKSGTASVVCLLNNFYPREAKVQWKVDNALQSGNSQESVTEQDSKDSTYSLSSTLTLSKADYEKHKVYACEVTHQGLSSPVTKSFNRGEC
As to B3, the EC50 in assay [5] was found to be 240 pM; in assay [6] it was 330 pM. In addition, the results for the “EC50 (read off the curve)” value in [7] and in [8] were around 600 pM and around 400 pM, respectively.
